Numbering of substitutions follows the chain as printed.
T1: CD123-expressing HNT-34 cells (Homo sapiens, UniProt P26951)
T1 construct: endogenous in cells; host or cells: HNT-34 (acute myeloid leukemia cell line)
T1 sequence (P26951 19-378): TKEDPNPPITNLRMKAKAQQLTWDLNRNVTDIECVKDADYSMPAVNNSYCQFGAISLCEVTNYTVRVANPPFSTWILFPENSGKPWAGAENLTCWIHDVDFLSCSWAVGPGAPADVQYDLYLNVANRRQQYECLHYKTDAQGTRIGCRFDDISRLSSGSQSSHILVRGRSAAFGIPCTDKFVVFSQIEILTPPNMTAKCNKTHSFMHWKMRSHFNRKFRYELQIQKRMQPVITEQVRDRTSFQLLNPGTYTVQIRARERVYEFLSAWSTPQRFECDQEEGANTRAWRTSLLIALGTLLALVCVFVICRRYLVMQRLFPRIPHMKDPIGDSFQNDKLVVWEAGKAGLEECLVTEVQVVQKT

B1: huCD123-6Gv4.6: CDR-grafted humanized CD123-6 antibody, light chain variable region Gv4 and heavy chain variable region Gv6 (antibody)
heavy: QFQLVQSGAEVKKPGASVKVSCKASGYIFTSSIMHWVRQAPGQGLEWIGYIKPYNDGTKYNEKFKGRATLTSDRSTSTAYMELSSLRSEDTAVYYCAREGGNDYYDTMDYWGQGTLVTVSS[here human IgG1 constant region without letters]
light: DIQMTQSPSSLSASVGDRVTITCRASQDINSYLSWFQQKPGKAPKTLIYRVNRLVDGVPSRFSGSGSGNDYTLTISSLQPEDFATYYCLQYDAFPYTFGQGTKVEIKRTVAAPSVFIFPPSDEQLKSGTASVVCLLNNFYPREAKVQWKVDNALQSGNSQESVTEQDSKDSTYSLSSTLTLSKADYEKHKVYACEVTHQGLSSPVTKSFNRGEC
B2: huCD123-6Gv4.7S3-SeriMab-D8: conjugate between D8 and huCD123-6Gv4.7S3 through the oxidized N-terminal Ser on the light chain (conjugate)
heavy: B1 heavy with F2V
light: B1 light with D1S
B3: huCD123-6Gv4.7S3-sSPDB-D1: conjugate between D1 and huCD123-6Gv4.7S3 through Lys linkage via a sulfonated SPDB linker (conjugate)
heavy: B1 heavy with F2V
light: B1 light with D1S
B4: huCD123-6Gv4.7: CDR-grafted humanized CD123-6 antibody, light chain variable region Gv4 and heavy chain variable region Gv7 (antibody)
heavy: B1 heavy with F2V
light: B1 light
B5: huCD123-6Gv4.7S3-D2: huCD123-6Gv4.7S3 antibody Lys-linked to D2 (conjugate)
heavy: B1 heavy with F2V
light: B1 light with D1S
B6: huCD123-6Gv4.7S3: huCD123-6Gv4.7 with engineered N-terminal serine on the light chain (antibody)
heavy: B1 heavy with F2V
light: B1 light with D1S
B7: huCD123-6Gv4.7-CysMab-D4: huCD123-6Gv4.7-CysMab antibody Cys-linked to D4 (conjugate)
heavy: QVQLVQSGAEVKKPGASVKVSCKASGYIFTSSIMHWVRQAPGQGLEWIGYIKPYNDGTKYNEKFKGRATLTSDRSTSTAYMELSSLRSEDTAVYYCAREGGNDYYDTMDYWGQGTLVTVSS[here human IgG1 constant region with changes without letters]
light: B1 light

Tests used:
[1] = test system: TF-1 cells; assay: Inhibition of IL-3-dependent proliferation of TF-1 cells (WST-8); assay type: cell-based, human; conditions: dose-response
Procedure: (§1) The ability of anti-CD123 antibodies to inhibit IL3-mediated signaling and proliferation was examined in vitro using the erythroleukemia cell line TF-1 that can proliferate only in the presence of one of the following growth factors, either IL-3 or GM-CSF. TF-1 cells were cultured in the complete RPMI medium (RPMI-1640, 10% fetal bovine serum and 50 μg/mL gentamicin sulfate; all reagents were from Invitrogen) supplemented with GM-CSF (2 ng/mL). Prior to setting up the proliferation assays, the cells were washed and then starved of the growth factors overnight. […] TF-1 cells were plated at 6,000 cells per well in the complete RPMI medium in either the presence or absence of 10 μg/mL of an anti-CD123 antibody. A growth factor, either IL-3 (1 ng/mL) or GM-CSF (2 ng/mL), was added to the cells to initiate cell proliferation. […] The relative numbers of viable cells in each well were determined by the colorimetric WST-8 assay (Dojindo Molecular Technologies, Inc., Rockville, MD, US). WST-8 is reduced by dehydrogenases in viable cells to an orange formazan product that is soluble in tissue culture medium. The amount of formazan produced is directly proportional to the number of viable cells. […] Then the absorbance was measured on a plate-reader spectrophotometer in the dual wavelength mode 450 nm/650 nm, and the absorbance at the 650 nm (non-specific light scattering by cells) was subtracted from that at the 450 nm.
TF-1 cells were plated at 6,000 cells per well in 100 μL culture medium. The antibodies were diluted into the culture medium using 6-fold dilution series and 50 μL of the diluted material was added per well. Then IL3 was added to the cells at the final concentration 1 ng/mL. […] Relative cell number in each well was determined by WST-8 assay as described above. […] Likewise, treatment with muCD123-14 or muCD123-6 reduced the relative cell number to less than 1% at the highest antibody concentration tested, with the IC50 values of 0.08 nM or 0.05 nM, respectively.

[2] = target: T1, CD123-expressing HNT-34 cells; assay: Flow cytometry binding to HNT-34 cells; conditions: FIGS. 7B and 7C
Procedure: Binding affinity was tested by flow cytometry using purified antibodies. […] TF-1 cells (5×10^4 cells per sample) were incubated with varying concentrations of murine antibodies in 200 μL FACS buffer (DMEM medium supplemented with 2% normal goat serum). The cells were then pelleted, washed twice, and incubated for 1 hr with 100 μL of phycoerythrin (PE)-conjugated goat anti-mouse IgG-antibody (Jackson Laboratory). The cells were pelleted again, washed with FACS buffer and resuspended in 200 μL of PBS containing 1% formaldehyde. Samples were acquired using a FACSCalibur flow cytometer with the HTS multiwell sampler, or a FACS array flow cytometer, and analyzed using CellQuest Pro (all from BD Biosciences, San Diego, US). For each sample the geomean fluorescence intensity for FL2 was calculated and plotted against the antibody concentration in a semi-log plot. A dose-response curve was generated by non-linear regression and the EC50 value of each curve, which corresponds to the apparent dissociation constant (Kd) of each antibody, was calculated using GraphPad Prism v4 (GraphPad software, San Diego, CA).
FIG. 5A depicts the dose-response curves for each antibody. The value for the apparent dissociation constant (Kd) of each antibody was calculated using GraphPad Prism v4 (GraphPad software, San Diego, CA).
FIGS. 7B and 7C depict the dose-response curves for each antibody and the corresponding conjugates.

[3] = test system: TF-1 cells; assay: Proliferation of TF-1 cells grown in the presence of GM-CSF (IL-3-dependence control); assay type: cell-based, human; conditions: GM-CSF 2 ng/mL
Procedure: as §1, with “medium.” for “medium. The amount of formazan produced is directly proportional to the number of viable cells.”

Molecule	inhibition of IL-3-dependent proliferation of TF-1 cells (in words) [1]	effect of conjugation on binding affinity versus unconjugated antibody [2]	effect on TF-1 cell proliferation in the presence of GM-CSF [3]
B1	inhibition of IL-3-dependent proliferation of TF-1 cells		
B2		only moderately affected the binding affinities	
B3		only moderately affected the binding affinities	
B4	inhibition of IL-3-dependent proliferation of TF-1 cells		
B5		only moderately affected the binding affinities	
B6	completely inhibited at 1 nM		no inhibitory effect
B7		only moderately affected the binding affinities	

— patent publication US11897961B2, “Anti-CD123 antibodies and conjugates and derivatives thereof” (IMMUNOGEN, INC., priority 2015, dated 2024)
